# Measured values: the supplement of paper PMC10126150
# Values marked as one replicate rest on one cluster of the flow cell; about a third of the high ones do not repeat.
# Tested on: ATP
# Test: switch fluorescence ratio, 500 uM ATP over buffer (Cy3 cluster intensity, sum of 5 cycles each) (fold (ratio)); higher = stronger signal-on switching upon ATP binding; sequences stand for … in TCGTCGGCAGCGTCAGATGTGTATAAGAGACAGTTTTTTTTTTTTTTTTTTTTTTTTT…TC
# Conditions: aptamer strand: ATP DNA aptamer (quencher-CACCTGGGGGAGTATTGCGGAGGAAGG + anchor), 100 nM annealed; ATP concentration: 500 uM; one replicate
# Procedure, shortened: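 For every switch-domain sequence, the fluorescence ratio is the mean of per-cluster values, each being summed target-cycle Cy3 intensity over summed buffer-cycle Cy3 intensity. Clusters outside 100-1000 RFU were excluded. On a modified Illumina MiSeq flow-cell, the Cy3-labelled switching-strand clusters were annealed to 100 nM quencher-labelled ATP aptamer, imaged in selection buffer and then after 15 min with 500 uM ATP at 22 °C. Five such cycles were run, with NaOH stripping and re-annealing between them.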
# 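Further: ATP exposure 15 min at 22 °C before imaging.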
row,Sequence,switch fluorescence ratio
1,ATGAGCTATG,1.01
2,AACGGTCAGC,1
3,GGCCATATGC,1.04
4,AATTCATAGG,1.01
5,CTTGTAGTTA,1.04
6,GTCGCGAATT,1.05
7,GTATAACTTC,1
8,GAGGCACTAG,1.29
9,TTTACGCTTA,1.04
10,CATACGTAC,1.71
11,CAGCTAAGGG,1.02
12,ACAAGACT,1.14
13,TTTCGTTGG,0.995
14,CCCCCATTTT,1.04
15,TCGGGGCGC,0.938
16,GCTTCCTATA,1.1
17,TTACTGATGA,0.975
18,TCGTTTTCTC,0.975
19,TAGTTTGACT,1
20,TACGGACGAG,1.04
21,ATTGTCGTGC,1.05
22,AGGATATCTG,0.966
23,CACGGGGTGC,1.06

row,Sequence,switch fluorescence ratio
1,AGCGGCGGTG,0.938
2,CTCAATAGCT,1.06
3,TATGAACGGG,1.06
4,GAACAGCCAG,1.02
5,GCTAATTGAA,0.958
6,GGTTCAAGC,0.952
7,AAAAGTGCT,0.928
8,GATTGTGGCT,1.01
9,ATTCTTCA,1.06
10,CCGACGGACG,1.1
11,CATGTTGTTA,0.978
12,TATTTCCGGA,0.987
13,AACGGCCAAC,1.14
14,ACAGGGCAGG,1.13
15,GTTGGACCTC,0.991
16,GATAGCCTTT,1
17,GTGGTACGTT,0.969
18,GCTGTACTGA,1.1
19,AACCTGTGCG,1.08
20,CGTTTAAAAT,1.03
21,CTGGGCGCGA,1.05
22,TGCCTCCTAA,1.34
23,CACCAGCTCC,1.15

row,Sequence,switch fluorescence ratio
1,CATGTGGTGC,1.01
2,AACGTTCGGA,1.06
3,CGAAGCGTTC,3.85
4,CAAAAGTCCA,0.959
5,TACATTGG,1.03
6,CTGCGGCTAC,3.98
7,TTTTATGATC,0.987
8,TGCTATTTTC,1.07
9,TTAATGAGCT,1.01
10,CAGTACCACC,1.15
11,GCTCGTGCGG,0.993
12,ATCAACTGGT,0.983
13,CAATAGGCTT,1.02
14,TGTTAAAGTC,0.992
15,CGTGAGATGT,0.981
16,TGGTCATTCC,1.14
17,AGATTAATGG,1.02
18,GACAGATTGG,0.934
19,GTTAGCGACT,0.98
20,ACAGAGGGGA,1.03
21,GTGTGATATT,0.982
22,CTGACCGA,1.08
23,GGGTGATTCA,1.04

row,Sequence,switch fluorescence ratio
1,CCATCTGGTC,1.04
2,TAACTTCCA,1.13
3,AGAGTCTCAA,0.988
4,GTGTATTTGT,1.01
5,GTTCACTGTG,1.02
6,GCTGCATGA,1
7,TTGATTCTTG,1.03
8,TGTGGGGACG,0.967
9,CAGATCTACC,1.05
10,TATCCTTTTA,0.972
11,GTTTTCAAGC,1.04
12,GCAGTCTCAT,0.969
13,TAATACTATC,0.992
14,TTACGGCGGA,1.05
15,AAAAAGCGTA,0.987
16,TTTATGCAGA,1.07
17,AGACCGGGTA,1.01
18,AACTCGCCGG,1.1
19,AAGGGCCTAG,1.06
20,TGCGAGAAGC,0.989
21,TAAGGGATAC,1.89
22,AGGTATGGTA,0.984
23,ATATGGGTGT,1.02

row,Sequence,switch fluorescence ratio
1,GTCTGACCTT,1.13
2,GCGCACCAGG,3.23
3,CTGTATAGTG,0.959
4,ACGACCTCGT,1.02
5,TCATAGCGGC,1.06
6,GGTCACGTC,0.954
7,CGGACCGTAT,0.968
8,ACTTCTTTTC,1.01
9,TAGGCGCCTA,1.01
10,AGGCGAGAAA,0.983
11,CTCATGATAG,1.07
12,ACACTTTAAA,1.02
13,AGCTAACGAT,1.03
14,ACAGCTTTTA,1.03
15,TTATAGGTAA,0.994
16,GTTTGTATCC,0.975
17,GTGAAGAGTT,0.952
18,TGCCAAGTCG,0.906
19,CGGATCGCTT,1.13
20,GCGGCAAGGT,1.04
21,ACTTGTATCT,0.949
22,AGGTATTTGC,1.01
23,CATAAGTGGC,1.04

row,Sequence,switch fluorescence ratio
1,TAAGGTCGTT,0.997
2,TTGACACAGG,1.02
3,GAAAGAAGCC,0.973
4,GTGTATGTCC,0.992
5,GATTCGGTTT,0.999
6,CAATGGGGAT,0.956
7,ACCATATGAG,1.04
8,ATGCATTCCT,1.09
9,CTAAGAGT,1.02
10,ATTGGTAGCC,1.03
11,CGTAGGACC,1.02
12,ATGAAGTGCG,1.03
13,AACTAGGCG,1.02
14,GTTGTGGCAC,1.02
15,CTACCTCGGC,1.32
16,TTTTGTGGAG,1.04
17,AAATGATCAA,1.01
18,CTATGGACGC,1.06
19,GTCAGCTAGT,1.02
20,CTTTTGGAAA,1.02
21,TACGCTTCCG,1.06
22,GCCGGTTTTT,1.02
23,CTCACGTGGA,1.01

row,Sequence,switch fluorescence ratio
1,TCCTATTACC,1.04
2,TGTCCGTCTA,1.01
3,AGTAGGAACT,0.971
4,ACAGGGCGCG,1.03
5,CATGTTCATC,0.962
6,ATTCTATTAT,0.981
7,TTACAATTGG,1.03
8,CATGTTGAAT,1.01
9,ATCGGGCTTC,0.971
10,CTAGTTTAAA,1.02
11,AGGGGACATG,1.09
12,ATAGCCCACT,1.04
13,TCGCTAACGA,1.18
14,CGTAGACATA,1.13
15,ATTGGGGA,0.977
16,AAGGGAGATC,1.01
17,GTCCCATGCT,1.02
18,CATTAGACC,1.02
19,GCGTGTTATC,1
20,CGGGTACGTA,0.96
